According to PubChem BioAssay AID1508623 (National Center for Advancing Translational Sciences (NCATS), 2021):
About 450 (0.94%) of roughly 48,000 compounds were called active. About 19% were inconclusive and are not listed. The call rests on the fitted dose curve; in most records, active means well fitted inhibition curve with a large enough effect; inconclusive means small, poorly fitted or top-dose-only effect; inactive means no such curve, though single readings can be large or run the other way. The list shows a part of the results.

experiment: Primary qHTS for Identification of Small Molecule Inhibitors of Huntingtin Promoter Activity; details: HEK293 HTT promoter firefly luciferase reporter (activity 0% = vehicle and -100% = no light), 24 h; series mostly up to 57.5 µM; activity change, negative = inhibition: at the top concentration; further: nearly all actives have a fitted effect of over 50% in size
How it was run: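 Firefly luciferase signal from promoter-reporter HEK293 cells was scaled between vehicle (0%) and zero RLU (-100%). Compounds were tested at final concentrations of up to 57.5 uM over 24 h at 37 degrees C. PTC124 at 50 uM final served as control inhibitor.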

Activity change, negative = inhibition, inactive:
CCOc1ccc(-c2nonc2NC(=O)c2oc3ccc(C)cc3c2C)cc1OCC -15.8%
COc1ccc(Cn2ccn(Cc3cccc(Cl)c3)c(=O)c2=O)cc1 -22.9%
CCCn1cc(S(=O)(=O)c2ccc(OC)cc2)c(=O)c2cc(F)c(N3CCCC(C)C3)cc21 (stereo unspecified) -11.5%
O=C(COc1ccccc1F)Nc1c(C(=O)Nc2cccc(F)c2)oc2ccccc12 -2.7%
Cc1ccc(C(=O)Nc2nc3nc(-c4ccccc4)cc(=O)n3[nH]2)cc1 -5.82%
CCCCCOC(=O)CSc1nc2sc3c(c2c(=O)n1-c1ccccc1)CC(C)(CC)OC3 (stereo unspecified) -4.26%
Cc1ccc(CNC(=O)CCS(=O)(=O)c2cc3c(cc2C)NC(=O)CO3)cc1 -1.84%
O=C(CSc1nc2c(oc3ccccc32)c(=O)n1Cc1ccco1)Nc1ccccc1 -5.03%
Cc1ccc(CN2CCCN(Cc3c(C)cc(C)cc3C)S2(=O)=O)cc1 1.67%
Cc1cccc(CSc2nc(-c3cccc(C)c3)nc3c2Cc2c(CO)cnc(C)c2O3)c1 -10.2%
COc1ccc(C)cc1NC(=O)COCc1cc(-c2ccc(F)cc2)on1 -3.92%
CC(C)(C)C(=O)OCc1cc(=O)n2nc(C3CC3)sc2n1 4.92%
Cc1nn(Cc2noc(C(=O)NC(C)c3ccccc3)n2)c(C)c1Br (stereo unspecified) -17.7%
Cc1ccc(N2CCN(S(=O)(=O)c3c(C)[nH]c(=O)[nH]c3=O)CC2C)cc1 (stereo unspecified) -11.3%
CCOC(=O)c1cc(-c2ccccc2)n(CC(=O)Nc2ccc(CC)cc2)c1C -8.05%
CCCN(CCC)c1nn2c(=O)c(C(=O)NCc3cc(Br)ccc3OC)cnc2s1 -1.23%
COc1cc(Cl)c(C)cc1NC(=O)Cn1cc(S(=O)(=O)N2CCC(C)CC2)c2ccccc2c1=O -8.13%
CC1(C)O[C@@H]2[C@@H](CO[C@@]3(COS(N)(=O)=O)OC(C)(C)O[C@@H]23)O1 4.75%
COc1ccc(OC)c(CCNC(=O)CCn2c(=O)c3cccn3c3ccc(F)cc32)c1 0.296%
Cc1cccc(S(=O)(=O)c2cn(C)c3cc(N4CCN(c5ccc(F)cc5)CC4)c(F)cc3c2=O)c1 -20.7%
CC(C)c1ccc(NC(=O)CSC2=Nc3ccccc3C3=NC(CCC(=O)NCc4ccco4)C(=O)N23)cc1 (stereo unspecified) 11.2%
COc1cc(NS(=O)(=O)c2ccc(N)cc2)nc(OC)n1
CC[N+](CC)(CC(=O)Nc1c(C)cccc1C)Cc1ccccc1 -4.65%
CC(C)n1cnc2c(NCCCCCCNC(=O)OC(C)(C)C)nc(NCCO)nc21 -25.9%
CCCCNC(=O)c1ccccc1NC(=O)CN(c1ccccc1)S(=O)(=O)N(C)C -16.9%
O=C(CSc1nc(=O)n(Cc2ccco2)c2c1CCC2)Nc1ccccc1C(F)(F)F -1.7%
